According to PubChem BioAssay AID1508623 (National Center for Advancing Translational Sciences (NCATS), 2021):
In all, about 48,000 compounds went through this assay and about 450 (0.94%) were called active. Inconclusive results (about 19%) are left out. Calls come from the whole dose curve; as a rule, active = well fitted inhibition curve with a large enough effect; inconclusive = small, poorly fitted or top-dose-only effect; inactive = no such curve, though single readings can be large or run the other way. The list shows a part of the results.

Experiment: Primary qHTS for Identification of Small Molecule Inhibitors of Huntingtin Promoter Activity; note: nearly all actives have a fitted effect of over 50% in size
Details: HEK293 HTT promoter firefly luciferase reporter (activity 0% = vehicle and -100% = no light), 24 h; series mostly up to 57.5 µM; activity change, negative = inhibition: at the top concentration
Summary of the method: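 Firefly luciferase readout (Dual-Glo, 10 min RT) after 24 h, 37 °C compound exposure (final up to 57.5 uM) of HEK293 reporter cells cultured 24 h beforehand; PTC124 at 50 uM final as control inhibitor; activity scaled vehicle 0%, zero RLU -100%.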

Structure (SMILES) | activity change, negative = inhibition
Cc1ccc(-c2cc(C(=O)Oc3ccccc3)c3cc(C)ccc3n2)cc1 | inactive: 14%
COc1ccc2c(c1)c1c(c(=O)n(-c3cccc(Cl)c3)c(=O)n1CC(=O)N1CCCC1)n2C | inactive: -4.33%
CCC1CCCCN1CCCNC(=O)CN1C(=O)CSc2ccc(S(=O)(=O)N3CCOCC3)cc21 (configuration not stated) | inactive: -11.4%
Clc1ccccc1CN1CCc2sccc2C1 | inactive
CCOc1ccccc1NC(=O)Cn1ccn(Cc2ccc(C)cc2)c(=O)c1=O | inactive: -25%
COc1ccc(/C=C\C(=O)NC2CC(=O)N(c3ccccc3)C2)cc1OC (configuration not stated) | inactive: -2.56%
COc1cc(NC(=O)c2nc(-c3ccncc3)no2)cc(OC)c1OC | inactive: 7.08%
Cc1ccc(CN(C(=O)COc2c(C)cccc2C)C2CCS(=O)(=O)C2)o1 (configuration not stated) | inactive: -8.14%
COC(=O)c1nc2n(n1)C(c1cc(OC)ccc1OC)C(C(=O)Nc1ccc(C)cc1C)=C(C)N2 (configuration not stated) | inactive: -8.75%
Cc1ccc2oc3c(c(=O)c2c1)C1(C(=O)N(C)c2ccccc21)N(CCCO)C3=O (configuration not stated) | inactive: -14.6%
COc1ccc2oc(-c3ccc(C)c(NC(=O)COc4cc(C)cc(C)c4)c3)nc2c1 | inactive: 5.7%
CCc1ccc(-n2c(=O)c3c4c(sc3n(CC(=O)c3ccc(Cl)cc3)c2=O)CCC4)cc1 | inactive: -0.307%
O=C(CCS(=O)(=O)c1cccc2nsnc12)Nc1ccc(F)cc1 | inactive: -10.5%
Cc1ccc(-n2nnc(C(=O)Nc3cc(F)ccc3F)c2C)cc1F | inactive: 75.5%
COc1ccccc1NC(=O)c1sc2nc3c(cc2c1N)CCCCCC3 | inactive: -24.4%
O=C(c1ccccc1)N1c2ncnn2C2(CCCCC2)[C@@H]2CCCC[C@@H]21 | inactive: -31.1%
Cc1ccccc1C(=O)Nc1cc(-c2ccc(Cl)cc2)nn1-c1ccccc1 | inactive: 10.4%
Cc1nn(-c2ccc(N3CCOCC3)nn2)c(C)c1CCC(=O)NCc1ccc(F)cc1 | inactive: -0.441%
Cc1ccc(NC(=O)C2CCN(c3cc(C)nc4c(-c5ccc(Cl)cc5)c(C)nn34)CC2)c(C)c1 | inactive: -11.7%
COc1ccccc1N1CCN(C(=O)CN2C(=O)COc3ccc(S(=O)(=O)N4CCC(C)CC4)cc32)CC1 | inactive: -2.8%
CCOc1ccc(NC(=O)CSc2nc3c(oc4ccccc43)c(=O)n2CCOC)cc1 | inactive: -16.8%
Cc1ccn2c(=O)cc(COc3ccc(NC(=O)c4ccccc4F)cc3)nc2c1 | inactive: 1.65%
Cn1ncc2nc(SCC(=O)Nc3ccc(Br)cc3F)n(Cc3ccccc3)c(=O)c21 | inactive: -21.2%
CCOc1ccc(CCNC(=O)CN2N=C(c3ccccc3)CCC2=O)cc1OCC | inactive: -24.2%

Structure (SMILES) | activity change, negative = inhibition
c1cc(-c2sc(-c3ccncc3)c(-c3ccncc3)c2-c2ccncc2)ccn1 | inactive: 5.22%
CC(=O)c1ccc(NC(=O)CSc2nc(-c3cccc(F)c3)nc3c2c(=O)n(C)c(=O)n3C)cc1 | inactive: -12.7%
CN1C(C(=O)Nc2ccc(F)cc2F)=CC(c2ccc3c(c2)OCO3)=NS1(=O)=O | inactive: -11.7%
Cc1cc(C)cc(NC(=O)CN2C(=O)c3ccccc3Sc3ncccc32)c1 | inactive: -24.3%
CCCCN(CC)CCCNC(=O)c1cc2c(=O)[nH]c3ccccc3c2s1 | inactive: -12.7%
Cc1cc(NC(=O)C2=C(O)c3ccccc3S(=O)(=O)N2C)no1 | inactive: 5.99%
COc1ccc(CNC(=O)c2ccc3c(c2)nc2n3CCOC2)c(OC)c1 | inactive: 6.6%
Cc1ccc(-c2cc(C(F)(F)F)c(C#N)c(SCC(=O)Nc3ccccc3)n2)cc1 | inactive: -12.5%
CCOC(=O)C(C)NC(=O)c1c(C)oc2ncn(CC(C)C)c(=O)c12 (configuration not stated) | inactive: 0%
Cc1ccc(CNC(=O)c2cc3c(=O)n(Cc4cccnc4)ccc3nc2C)cc1 | inactive: -24.5%
COc1ccc(OC)c(CCNC(=O)c2csc3c2CCCCC3)c1 | inactive: -19.9%
Cc1cccc(C)c1OCc1nc2c3c(-c4ccccc4)c(-c4ccccc4)oc3ncn2n1 | inactive: -6.81%
CCn1cc(C(=O)N2CCN(c3ccc(C(C)=O)cc3)CC2)c2cc(OC)c(OC)cc2c1=O | inactive: -5.61%
Cc1csc2nc(COc3ccccc3NC(=O)c3ccc(C(C)(C)C)cc3)cc(=O)n12 | inactive: 4.2%
CC(=O)C1=C(c2ccc(C)c(C)c2)N(C(C)=O)n2c(nnc2-c2ccc(Cl)cc2)S1 | inactive: -13.6%
CCNC(=O)c1nn(-c2ccccc2C)nc1CO | inactive: 2.7%
Cc1cccc(CNC(=O)CCCn2c(=O)c3cccn3c3ccc(F)cc32)c1 | inactive: -5.8%
O=C(Cn1c(=O)n(-c2ccccc2Cl)c(=O)c2sc3ccccc3c21)NC1CCCCC1 | inactive: -11.8%
Cc1ccc(CN2CCN(CC(=O)Nc3ccc(C)c(C)c3)S2(=O)=O)cc1 | inactive: -13%
N#Cc1cccc(NC(=O)C2CCN(S(=O)(=O)c3ccc4[nH]c(=O)ccc4c3)CC2)c1 | inactive: -4.62%
Cc1c(NC(=O)c2nc3ccccc3nc2N2CCCCC2)cccc1[N+](=O)[O-] | inactive: -14.8%
Cc1ccccc1OC(=O)CSc1nnc(-c2ccc(F)cc2)o1 | inactive: 0.24%
Cc1c(C)c2c(c(C)c1OC(=O)c1cccnc1)CC[C@@](C)(CCC[C@H](C)CCC[C@H](C)CCCC(C)C)O2 | inactive: 3.42%
